Reference: PubChem BioAssay AID488969 (Vanderbilt High Throughput Screening Facility, 2010)
In all, about 110,000 compounds were measured (“z-score”: median about -0.1, highest 2% from about 2 on). This is one part of the list.

These compounds were tested against Metabotropic glutamate receptor 8 (Rattus norvegicus) (UniProt P70579) (assay: mGluR8 Gi/Go-coupled signaling modulation – cell-based, rat, thallium flux, HTS, primary screen (AID 488969)). Conditions: HEK293 rat mGluR8, GIRK (G protein-gated inwardly rectifying potassium channel) thallium flux, FluoZin2; at 10 µM; stronger effect = higher value; submaximal glutamate (EC20) added with thallium.
UniProt P70579, sequence (P70579 whole entry, looked up): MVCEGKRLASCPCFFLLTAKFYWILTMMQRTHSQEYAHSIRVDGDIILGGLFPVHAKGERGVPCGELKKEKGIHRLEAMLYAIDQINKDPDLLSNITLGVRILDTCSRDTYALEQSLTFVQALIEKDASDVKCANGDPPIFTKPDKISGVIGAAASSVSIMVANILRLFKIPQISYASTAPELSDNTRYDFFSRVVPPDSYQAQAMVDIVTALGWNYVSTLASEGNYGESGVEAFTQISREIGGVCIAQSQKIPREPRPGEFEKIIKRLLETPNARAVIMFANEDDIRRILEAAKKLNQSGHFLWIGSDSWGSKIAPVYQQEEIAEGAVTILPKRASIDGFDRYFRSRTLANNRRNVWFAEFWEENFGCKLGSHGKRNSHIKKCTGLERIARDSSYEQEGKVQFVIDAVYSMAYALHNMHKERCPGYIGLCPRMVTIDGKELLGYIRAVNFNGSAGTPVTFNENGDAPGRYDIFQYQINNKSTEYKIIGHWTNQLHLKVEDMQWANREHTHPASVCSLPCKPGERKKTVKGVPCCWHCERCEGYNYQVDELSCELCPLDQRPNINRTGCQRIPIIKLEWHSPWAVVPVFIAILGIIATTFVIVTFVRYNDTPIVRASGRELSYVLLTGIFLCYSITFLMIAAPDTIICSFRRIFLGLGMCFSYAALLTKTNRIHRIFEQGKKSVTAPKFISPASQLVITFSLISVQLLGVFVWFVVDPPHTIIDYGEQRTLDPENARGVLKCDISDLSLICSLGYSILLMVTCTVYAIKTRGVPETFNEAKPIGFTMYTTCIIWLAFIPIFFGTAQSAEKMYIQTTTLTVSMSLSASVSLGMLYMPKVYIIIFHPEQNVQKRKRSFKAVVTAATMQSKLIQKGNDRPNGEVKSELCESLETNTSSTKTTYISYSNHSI

Going from CCCCc1ccc(S(=O)(=O)NCCc2ccncc2)cc1 to Cc1ccc(S(=O)(=O)NC(=O)NCc2ccc(Cl)cc2)cc1, the z-score falls from 0.298 to 0.0562.

Going from Cc1nc2cc(NC(=O)NCc3ccco3)ccc2o1 to Cc1ccc2cc(COC(=O)c3ccco3)c(=O)[nH]c2c1, the z-score falls from -0.15 to -0.25.

Going from CC1(C)CC(=O)C=C(Nc2ccc(F)cc2)C1 to C=CCNc1nc(Nc2ccc(OC)cc2)nc(OC)n1, the z-score falls from 0.643 to -0.295.

First: O=C(Cn1c(NCCO)nc2ccccc21)c1ccc(Cl)cc1
Second: O=C(O)COc1ccc(-c2nnn(Cc3ccccc3F)n2)cc1
The z-score of the first is lower: -0.664 for the first, 1.3 for the second.

First: CCC(=O)c1ccc(OCC(O)CNCc2ccc(F)cc2)cc1 (stereo unspecified)
Second: COC(=O)c1cc(NC(=O)CN(c2ccc(OC)cc2)S(=O)(=O)c2ccc(F)cc2)ccc1Cl
The z-score of the first is higher: -0.0859 for the first, -0.143 for the second.

First: CC1(C)NC(=O)N(CCCCOc2ccc(Cl)cc2)C1=O
Second: CCOc1ccc(-n2c(Cc3cc(=O)[nH]c(=O)[nH]3)nnc2SCC(=O)OC)cc1
The z-score of the first is lower: -0.367 for the first, 0.0852 for the second.

First: CCOC(=O)c1ccc(N2NC(=O)/C(=C/c3ccc(OC(=O)c4ccco4)c(OC)c3)C2=O)cc1
Second: CCOC(=O)c1sc(N2C(=O)C(O)=C(C(=O)c3ccco3)C2c2ccccc2)nc1C (stereo unspecified)
The z-score of the first is higher: -0.682 for the first, -2.58 for the second.

Going from CCOC(=O)C1=C(C)NC(=O)NC1c1c(O)ccc2ccccc12 (stereo unspecified) to Cc1cccc(C)c1OC(=O)CSc1nnc(-c2ccccc2O)o1, the z-score rises from -0.111 to 0.0686.

Going from CCn1c(O)c(C=NCc2cccs2)c(=O)n(CC)c1=S to Cc1ccc(C)c2nc(SCC(=O)NCc3cccs3)c(C#N)cc12, the z-score falls from 0.0793 to -0.185.

Going from COc1cc(/C=c2\sc3nc(=O)c(-c4ccccc4)nn3c2=O)ccc1OCCC(C)C to O=c1c2ccccc2nc2n1C(CSCc1ccccc1)CS2 (stereo unspecified), the z-score falls from 0.00435 to -0.375.

First: Cc1nc2ccccc2nc1N1CCC(C)CC1
Second: Cc1cc(C)n(-c2nnc(C)n2/N=C/c2ccccc2F)n1
The z-score of the first is higher: -0.18 for the first, -0.35 for the second.

Going from O=C(Nc1ncc(Cc2cccc(Cl)c2Cl)s1)c1ccc([N+](=O)[O-])cc1 to Cc1cccc(C(=O)O/N=C2\CCSc3ccc(C)cc32)c1, the z-score falls from 0.0306 to -0.368.

Going from CC(C)c1ccc(C(O)c2cnc(C(C)C)n2C)cc1 (stereo unspecified) to Cc1ccc(-c2nn(CCC#N)cc2C=C(C#N)C#N)cc1, the z-score rises from -0.127 to 0.287.

Going from CC(C)Cn1c(N)c(C(=O)COC(=O)c2ccc3c(c2)OCCO3)c(=O)n(C)c1=O to CCOC(=O)c1c(C)[nH]c(C(=O)COC(=O)C2CC2C)c1C (stereo unspecified), the z-score falls from -0.2 to -0.868.

Compared with O=C(O)c1cccc(CSc2ncccn2)c1, CCOC(=O)/C=C1\SCC(=O)N1CC(=O)NC(c1ccccc1)c1ccccc1 is lower in z-score: -0.149 for the first, -0.519 for the second.

For CCOC(=O)c1sc2nc(N3CCOCC3)c3c(c2c1N)CC(C)(C)N(C)C3, the z-score was 0.887.
